Data on 96 compounds can be found in PubChem BioAssay AID1508624 (National Center for Advancing Translational Sciences (NCATS), 2021).

About 120 (0.25%) of roughly 48,000 compounds were called active. Inconclusive results (about 4%) are left out. Calls follow the shape of the dose curve; as a rule, active = well fitted activation curve with a large enough effect; inconclusive = small, poorly fitted or top-dose-only effect, or another doubt; inactive = no such curve, though single readings can be large or run the other way. This is one part of the list.

The experiment is described as follows: Primary qHTS for Identification of Small Molecule Activators of Huntingtin-Antisense Promoter Activity. Also: nearly all actives have a fitted effect of over 55% in size. To be noted: HEK293 HTT-AS promoter firefly luciferase reporter (activity 0% = vehicle and -100% = no light), 24 h; series mostly up to 57.5 µM; activity change, positive = activation: at the top concentration. The procedure, abridged:
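HEK293 luciferase promoter-reporter cells (2,500/well) plated 24 h, then compounds added at up to 57.5 uM final for 24 h at 37 °C. Firefly luminescence by Dual-Glo, normalized to vehicle (0%) and zero RLU (-100%).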
Take `CCCCN(CCCC)CC(O)c1cc(Cl)cc2c1-c1ccc(Cl)cc1/C2=C/c1ccc(Cl)cc1` (stereo unspecified): the “activity change, positive = activation” value was inactive: -16.7%.
The figure for `COc1ccccc1CNC(=O)Cc1csc2nc(-c3ccc(F)cc3)cn12` is inactive: -9.4%; for `O=S(=O)(c1ccc(Cl)cc1)c1nc(-c2cccs2)oc1N1CCCCC1` it is inactive: -24.7%; for `CCc1cc2c(cc3c(=O)n(CC(=O)NC(C)c4ccccc4)ncn32)s1` (stereo unspecified) it is inactive: -6.91%.
`COc1cccc(NC(=O)CCN2C(=O)c3ccccc3Sc3ncccc32)c1`: the “activity change, positive = activation” value is inactive: -6.27%.
The figure for `Cc1cc(C)nc(-n2nc(C)c3c2N(Cc2ccccc2F)C(=O)CC3c2ccc(Cl)cc2)n1` (stereo unspecified) is inactive: -17.9%; for `CCc1ccccc1NC(=O)C1CCN(S(=O)(=O)c2cn(C)cn2)CC1` it is inactive: -1.9%.
The figure for `CCOC(=O)c1sc2ccccc2c1S(=O)(=O)NCc1ccccc1OC` is inactive: -28.8%; for `O=C(Nc1nnc(-c2ccco2)o1)c1cc(-c2ccccc2)nc2ccccc12` it is inactive: -10.8%; for `Cc1c(CCNC(=O)c2c(F)cccc2F)sc2nc(-c3ccc(F)cc3)nn12` it is inactive: 9.5%.
The figure for `CCOc1ccc(CCn2c3c(c(=O)[nH]c2=O)C(NC(=O)c2cccc(F)c2)(C(F)(F)F)C(=O)N3)cc1OCC` (stereo unspecified) is inactive: -6%.
Regarding `Cn1ncc2c(N3CCN(c4ccc(F)cc4)CC3)ncnc21`, the “activity change, positive = activation” value was inactive: -22.2%.
The figure for `O=C(Cc1ccc(-c2ccccc2)cc1)NCCS(=O)(=O)N1CCN(c2ccc(F)cc2)CC1` is inactive: -3.43%.
The figure for `Cc1cc(O)cc(C)c1Cl` is inactive: -0.488%.
The figure for `COc1cc(-c2nc3sccn3c2Nc2c(C)cccc2C)ccc1O` is inactive: -3.89%; for `CC(=O)N(c1onc(C)c1C)S(=O)(=O)c1ccc(N)cc1` it is inactive: 6.26%; for `O=C1Cc2cc(S(=O)(=O)N3CCN(c4cccc(Cl)c4)CC3)ccc2N1` it is inactive: -11.3%.
Consider `CC(=O)N1CCCc2ccc(NS(=O)(=O)c3cccc(Cl)c3)cc21`, for which the “activity change, positive = activation” value was inactive: -2.65%.
The figure for `CCn1c(C(=O)NCCc2ccc(S(N)(=O)=O)cc2)cc2sc(Cl)cc21` is inactive: -34.9%; for `CC(=O)N1CCCC1c1nc2ccccc2n1Cc1ccccc1Cl` (stereo unspecified) it is inactive: -9.13%; for `O=C(CC1N=C2c3ccccc3N=C(SCc3ccc(F)cc3)N2C1=O)NCCc1ccccc1` (stereo unspecified) it is inactive: -21.3%.
On to `O=C(CSc1nccn1-c1ccc(F)cc1)Nc1nc2ccccc2s1`, for which the “activity change, positive = activation” value was inactive: 14.8%.
In the case of `Cc1cccc(Cn2c(-c3ccccc3)nc3ccccc32)c1`, the “activity change, positive = activation” value was inactive: -22.7%.
On to `Cc1ccc(-c2cnc(C3CC3)o2)cc1S(=O)(=O)Nc1cccc(C)c1C`, for which the “activity change, positive = activation” value is inactive: 5.48%.
The figure for `CC(C)(C)OC(=O)N1CCC(c2c(C(=O)N3CCN(c4ccccn4)CC3)cnn2-c2ccc(F)cc2F)CC1` is inactive: -7.34%.
The figure for `CCN1CCN(c2csc3ccc(Br)cc3c2=O)CC1` is inactive: 25.5%; for `COc1ccc(NC(=O)C2CCCN(S(=O)(=O)c3c(C)[nH]c(=O)[nH]c3=O)C2)cc1OC` (stereo unspecified) it is inactive: 0.789%.
The figure for `CCn1c(=O)c2cc(C(=O)NCc3cc(OC)ccc3OC)sc2c2ccccc21` is inactive: -12.4%; for `Cc1ccc(NC(=O)C2CCCN(c3ncnc4c3nc3n4CCCCC3)C2)c(Br)c1` (stereo unspecified) it is inactive: 3.85%.
As for `CC(C)(C)c1ccc(C(=O)NCC(=O)OCc2cc(=O)n3nc(C4CC4)sc3n2)cc1`, the “activity change, positive = activation” value was inactive: -14%.
The figure for `COc1ccc(Cl)cc1NCc1nnc2n1CCCCC2` is inactive: -5.92%; for `CCCNC(=O)Nc1ccc(Oc2ncnc3cc(OC)c(OC)cc23)cc1Cl` it is inactive: -10.1%; for `COc1ccc(NC(=O)c2oc3ccccc3c2NC(=O)c2cc(=O)c3cc(Cl)ccc3o2)cc1` it is inactive: -9.24%.
Turning to `COc1ccc(CC(C)NS(=O)(=O)c2ccc3c(c2)CCN3S(C)(=O)=O)cc1OC` (stereo unspecified), the “activity change, positive = activation” value was inactive: -34%.
The figure for `COC(=O)c1c(NC(=O)c2ccc(OC)cc2OC)sc2c1CCCCC2` is inactive: -2.81%; for `Cc1cccc(C(=O)Nc2cc3c(cc2C)n(C)c(=O)n3C)c1` it is inactive: -6.26%.
The figure for `CCC(=O)N1CCc2cc(Br)cc(S(=O)(=O)NCCc3cccc(C)c3)c21` is inactive: -26.8%; for `O=C(Nc1sc2c(c1C(=O)NCc1ccco1)CCCC2)c1cc(=O)c2cc(Cl)ccc2o1` it is inactive: -11.5%; for `Cc1nnc(N2CCN(C(=O)NCCC(C)C)CC2)c2nn(-c3ccc(Cl)cc3)c(C)c12` it is inactive: -1.96%.
The figure for `Cc1cc(C)c2nc(C)cc(Nc3cccc(C(=O)O)c3)c2c1` is inactive: 4.52%.
With `CCOc1cc(C(=O)Nc2cc3c(cc2N2CCCC2)n(C)c(=O)c(=O)n3C)cc(OCC)c1OCC`, the “activity change, positive = activation” value is inactive: -2.37%.
The figure for `CC(=O)N1CCC(N(Cc2ccc(C)o2)C(=O)Nc2cccc(C(F)(F)F)c2)CC1` is inactive: -16.2%.
The figure for `Cc1ccc2c(c1)-c1nc(-c3ccc4c(c3)NC(=O)CO4)cc(-c3ccccc3)c1CO2` is inactive: -7.76%; for `NS(=O)(=O)c1cc2c(cc1Cl)CN(C1CCCCC1)C2=O` it is inactive: 7.71%.
The figure for `Cc1ccc(C)c(NC(=O)CN2C(=O)CCc3cc(S(=O)(=O)N4CCCCC4)ccc32)c1` is inactive: -11.3%; for `COc1ccccc1NC(=O)Cn1c(C)cc(C)c(C#N)c1=O` it is inactive: -1.8%; for `O=C(CCCCn1c(=O)c2ccccc2n(Cc2cccc(F)c2)c1=O)NCCc1ccccc1` it is inactive: -34.7%.
With `O=C(NC1CCN(Cc2ccccc2)CC1)c1ccc(Cn2c(=O)c3ccccc3n(Cc3ccc(Cl)cc3)c2=O)cc1`, the “activity change, positive = activation” value is inactive: -22.7%.
Regarding `COc1ccc(NC(=O)Nc2cc(-c3cn4cccnc4n3)ccc2C)cc1`, the “activity change, positive = activation” value was inactive: 1.8%.
The figure for `CC(=O)N1CCc2c(sc3c2c(=O)n(-c2ccccc2)c(=O)n3CC(=O)c2ccccc2)C1` is inactive: -9.17%; for `CC(=O)N1CCc2cc(S(=O)(=O)NC(Cc3ccccc3)C(=O)NCc3ccccc3)ccc21` (stereo unspecified) it is inactive: -12.9%.
As for `CC(=O)Nc1ccc(NC(=O)c2ccc3c(c2)N(Cc2cccc(Cl)c2)C(=O)c2ccccc2S3=O)cc1` (stereo unspecified), the “activity change, positive = activation” value is inactive: -32.5%.
Take `Cc1ccc(Cn2c(=O)n(Cc3ccccc3)c(=O)c3oc4ccccc4c32)cc1`: the “activity change, positive = activation” value was inactive: -19.5%.
The figure for `CC(=O)c1cccc(NC(=O)c2sc(-n3nc(C)c(Cc4ccccc4)c3C)nc2C)c1` is inactive: -26.8%.
Consider `CCCCN(C)CC(O)Cn1cc(/C=C/C(=O)c2ccc(Br)cc2)c2ccccc21` (stereo unspecified), for which the “activity change, positive = activation” value is inactive: -34.1%.
The figure for `CCCS(=O)(=O)N1CC(=O)N(c2cccc(Cl)c2)C(C)(C(=O)NC2CCCCC2)C1` (stereo unspecified) is inactive: -10.3%; for `Cc1cc(=O)[nH]c2nnc(SCc3ccc(Cl)cc3Cl)n12` it is inactive: -5.2%; for `Cc1ccc2c(CNC3CCCCC3)c(C(=O)O)n(Cc3ccc(F)cc3)c2c1` it is inactive: -15%.
The figure for `COCCNC(=O)c1ccc2c(c1)N(Cc1cc(C)ccc1C)C(=O)c1ccccc1S2=O` (stereo unspecified) is inactive: -22.2%.
The figure for `O=C(Cn1c(SCc2ccc(F)cc2)nc2cccnc21)Nc1ccccc1F` is inactive: 22.3%.
Consider `COc1cccc2cc(-c3nc(-c4ccccc4F)no3)c(=O)oc12`, for which the “activity change, positive = activation” value was inactive: 1.72%.
The figure for `CC(=O)OCC(=O)[C@@]1(O)[C@H](C)C[C@H]2[C@@H]3C=C(C)C4=Cc5c(cnn5-c5ccccc5)C[C@]4(C)[C@@H]3[C@@H](O)C[C@@]21C` is inactive: -21.1%; for `O=C(Nc1ccc(F)c(Cl)c1)c1ccc2c(Cl)c3c(nc2c1)CCCC3` it is inactive: -7.53%.
The figure for `CCOc1ccccc1CNC(=O)c1cc2c(=O)n(Cc3cccnc3)ccc2nc1C` is inactive: -14.5%.
The figure for `CCOc1ccc2nc(NC(=O)c3nc(SCc4ccccc4F)ncc3Cl)sc2c1` is inactive: 16.9%; for `Cc1cc(C)cc(-n2c(SCC(=O)Nc3ccccc3)nc3c(oc4ccccc43)c2=O)c1` it is inactive: -11.6%; for `Cc1ccc(-n2nc3c(=O)n(C(C)C(=O)NCc4ccc(OC(C)C)cc4)nc(C)c3c2C)cc1` (stereo unspecified) it is inactive: -58.3%.
With `COc1ccc2c(CNCc3cccs3)c(C(=O)O)n(Cc3ccc(F)cc3)c2c1`, the “activity change, positive = activation” value was inactive: -24.3%.
The figure for `CC(=O)c1ccc(NC(=O)CSC2=Nc3ccccc3N=C(c3ccc(F)cc3)C2)cc1` is inactive: -37.1%.
As for `CC(C)Cn1cc(NC(=O)N2CCN(c3ccc(F)cc3)CC2)c2ccccc2c1=O`, the “activity change, positive = activation” value is inactive: -4.83%.
For `COc1cc(OC)cc(-c2nc3nc(C)c(CCC(=O)Nc4cc(C)cc(C)c4)c(C)n3n2)c1`, the “activity change, positive = activation” value is inactive: -11%.
The figure for `CCCCn1c(=O)n(CC2CCC(C(=O)NCCCOC)CC2)c(=O)c2sccc21` (stereo unspecified) is inactive: -5.88%; for `O=C(NCc1ccc(Cl)cc1)C1CCN(S(=O)(=O)c2cccc3nonc23)CC1` it is inactive: -16.9%.
The figure for `CCC(Cc1ccccc1)NC(=O)Cn1nc(C)n2c(cc3occc32)c1=O` (stereo unspecified) is inactive: -11.6%.
The figure for `COc1ccc(-c2noc(CSc3nnc(C)n3-c3ccc(C)cc3)n2)cc1` is inactive: -15.1%.
As to `CC(C)(CO)[C@@H](O)C(=O)NCCC(=O)O`, the “activity change, positive = activation” value was inactive: -14.8%.
The figure for `COc1ccc(N2CC(C(=O)Nc3ccccc3-c3nc(-c4ccc(C)cc4)no3)CC2=O)cc1` (stereo unspecified) is inactive: 14.8%; for `CCCSc1nc2c(c(=O)[nH]1)C(c1ccc(O)c(OCC)c1)CC(=O)N2` (stereo unspecified) it is inactive: -20.9%.
The figure for `Cn1c(=O)c2c(nc(NCc3ccccc3)n2Cc2ccc(Cl)c(Cl)c2)n(C)c1=O` is inactive: -42.9%; for `COc1ccc(C(=O)NCCc2nc3ccccc3[nH]2)cc1` it is inactive: -20.4%; for `CCOc1ccc(C(CC(=O)Nc2ccc(C(=O)OC)cc2)N2Cc3ccccc3C2=O)cc1OC` (stereo unspecified) it is inactive: -14.1%.
Regarding `CC(C)(C)c1ccc(OCc2cc(=O)n3c4c(sc3n2)CCCC4)cc1`, the “activity change, positive = activation” value is inactive: -10.8%.
The figure for `Cc1ccccc1CSCc1ccc(C(=O)NCCc2ccccc2)o1` is inactive: -10.1%; for `COc1cccc(NC(=O)c2oc3ccc(S(=O)(=O)N4CCC5(CC4)OCCO5)cc3c2C)c1` it is inactive: -44.6%.
Take `CCN(CCCCOC(=O)c1ccc(OC)c(OC)c1)C(C)Cc1ccc(OC)cc1` (stereo unspecified): the “activity change, positive = activation” value is inactive: -5.93%.
The figure for `CN(C)c1ccc(CNS(=O)(=O)c2csc(C(N)=O)c2)cc1` is inactive: -38.8%; for `O=C(NCC(c1ccco1)S(=O)(=O)c1cccs1)c1ccc(C(F)(F)F)cc1` (stereo unspecified) it is inactive: -13.2%; for `CCn1cc2nc(SCc3ccccc3)n(Cc3ccc(C)cc3)c(=O)c2n1` it is inactive: 5.15%.
The entry for `Cc1cc(C(C)(C)C)cc(C)c1CC1=NCCN1` is “inactive”; for `Cc1ccccc1NC(=O)CSc1nc2ccc(NC(=O)c3ccco3)cc2s1` it is inactive: -27.1%; for `Clc1ccc(-c2noc3ncnc(N4CCCCC4)c23)cc1` it is inactive: -26.1%.
For `COc1ccc(C)cc1NC(=O)c1cc(S(=O)(=O)NCCC2=CCCCC2)ccc1F`, the “activity change, positive = activation” value was inactive: -25.7%.
The figure for `O=C(CSCc1ccc(F)cc1)N1CCc2c([nH]c3ccccc23)C1c1ccccc1` (stereo unspecified) is inactive: -30.1%.
The figure for `CCCOc1ccc(Cn2c(=O)sc3ccccc32)cc1` is inactive: -10.8%; for `Cc1cccc(N2CCN(C(=O)c3ccc4c(c3)N(Cc3cccc(Cl)c3)C(=O)c3ccccc3S4=O)CC2)c1C` (stereo unspecified) it is inactive: -21.9%; for `O=C(CC(=O)Nc1ccccc1F)Nc1ccc2nc3n(c(=O)c2c1)CCCCC3` it is inactive: -26.1%.
